Measurements reported in PubChem BioAssay AID686978 (National Center for Advancing Translational Sciences (NCATS), 2013).
The whole screen tested about 420,000 compounds, of which about 64,000 (15%) were called active. The shares of active, inactive and inconclusive entries below differ from those in the screen. Calls follow the shape of the dose curve; as a rule, active = well fitted inhibition curve with a large enough effect; inconclusive = small, poorly fitted or top-dose-only effect; inactive = flat fitted curve, though single readings scatter. No potency is given beside an inconclusive call; the fits are too rough.

assay: qHTS for Inhibitors of human tyrosyl-DNA phosphodiesterase 1 (TDP1): qHTS in cells in absence of CPT; conditions: DT40 Tdp1-/- hTDP1 cells, no CPT, ATP luminescence, 48 h; activity change, negative = growth inhibition: at 46.2 µM (top of the series) unless noted; also: nearly all actives have a fitted effect of over 55% in size
Outline: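 Seeded 400 DT40-hTDP1 cells/well (vehicle DMSO, no 20 nM CPT); pinned compounds; ≥48 hr at 37 °C; CellTiter-Glo luminescence as viability measure.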
% is scaled to controls: 0 for no effect and ±100 for the full control effect; potency is read from the fitted curve at half-maximal effect; tags tell the direction and shape of the fitted curve.

SMILES | Potency | activity change, negative = growth inhibition
CC1CC(C)CN(S(=O)(=O)c2ccc(Cl)cc2)C1 (stereo not drawn) | inconclusive [inhibitor, partial curve] | –
Oc1c(Cl)cc(Cl)cc1C1=NNC(c2ccc(Cl)cc2)C1 (stereo not drawn) | inconclusive [inhibitor, single point] | –
CCOC(=O)Cn1nnc(-c2ccc(OCC(C)C)cc2)n1 | inactive | –
O=c1[nH]nc2c3ccccc3occ1-2 | inactive | –
CCOC(=O)c1cc(-c2ccc(OC)cc2)n(CCC(=O)NCc2ccccc2OC)c1C | inconclusive [inhibitor, single point] | –
CCc1ccccc1OCC(=O)Nc1ccc2c(c1)OCCO2 | inconclusive [inhibitor, single point] | –
CCCc1ccc(C2=Nn3c(nnc3C(C)C)SC2)cc1 | inconclusive [inhibitor, single point] | –
COc1ccc(S(=O)(=O)N2CCC3(CC2)OCCN3S(=O)(=O)c2cccs2)cc1OC | inconclusive [inhibitor, partial curve] | –
COc1nc(Nc2ccccc2)nc(OC)n1 | inconclusive [inhibitor, single point] | –
CCc1ccc(N2CC(C(=O)NC3=NCCS3)CC2=O)cc1 (stereo not drawn) | inactive | –
Nc1cccc2cccnc12 | active: 5.62 µM | –
Cc1ccsc1CN(Cc1ccco1)C(=O)c1ccc(Cl)cc1 | active: 13 µM | –
COc1cccc(NC(=O)C2C3CC4OC(=O)C2C4C3)c1 (stereo not drawn) | inactive | –
COc1ccc(OC)c(NC(=O)c2cnn(-c3ccccc3)c2C)c1 | inconclusive [inhibitor, partial curve, poor fit] | –
CN(C)c1ccc(/C=N/NC(=O)c2nonc2N)cc1[N+](=O)[O-] | inconclusive [inhibitor, single point] | –
CCC1CCCCN1C(=O)CSc1nc(N)c(NC(=O)c2ccc(OC)c(OC)c2)c(=O)[nH]1 (stereo not drawn) | inactive | –
Cc1ccc(CC(=O)Nc2nc3ccccc3[nH]2)cc1C | active: 1.78 µM | –
Cn1cc(-c2coc3c(C(=O)NCc4ccco4)cccc23)cn1 | inconclusive [inhibitor, partial curve, poor fit] | –
Oc1ccc2ccccc2c1CN1CCN(c2ccccc2F)CC1 | inconclusive [inhibitor, partial curve] | –
Cc1noc(C)c1CSCC(=O)N(C)CC(=O)Nc1ccc(Cl)cc1 | inconclusive [inhibitor, single point] | –
COc1cccc(C(=O)OCc2cc(=O)oc3c(C)c(C)ccc23)c1OC | inconclusive [inhibitor, single point] | –
CC(/C=C/c1ccccc1)=N/NC(=O)CNC(=O)c1ccccc1F | inactive | –
O=C(OCC(=O)N(C1CCCCC1)C1CCCCC1)c1ccco1 | inactive | –
C=CCn1c(Cn2nnc3ccccc32)nnc1SCC(=O)N/N=C/c1cc(Br)cc(OC)c1O | inactive | –
CC(=O)C(Cc1ccccc1)NC(=O)CN1CCN(Cc2ccccc2)CC1 (stereo not drawn) | inactive | –

SMILES | Potency | activity change, negative = growth inhibition
O=C(c1ccc2nc(Cc3cccc(Cl)c3)oc2c1)N1CCC(O)CC1 | inactive | –
Cc1nn(-c2ccccc2)c(C)c1/C=C/C(=O)OCC(=O)Nc1ncc(Cl)cc1Cl | inconclusive [inhibitor, single point] | –
CC1(C(=O)NS(=O)(=O)Cc2cccc(Cl)c2)CCN1C(=O)c1cccc(F)c1 (stereo not drawn) | inactive | –
O=C(Nc1ccccc1-c1ccccc1)C1CCCC1 | active: 6.51 µM | –
Cn1c(=O)c(-c2ccccc2)nn2c3ccccc3nc12 | inconclusive [inhibitor, single point] | –
Cc1cccc(-n2[nH]c3c4c(ccc3c2=O)C(=O)c2ccccc2C4=O)c1 | inconclusive [inhibitor, single point] | –
O=C(COc1ccccc1)N1CCN(C(=O)c2cccc(F)c2)CC1 | inactive | –
Cc1ccc(NC(=O)C[n+]2cc(-c3ccccc3)n3c2CCC3)cc1 | inconclusive [inhibitor, single point] | –
CC(C)(C)c1ccccc1OCCCCCn1ccnc1 | inconclusive [inhibitor, single point] | –
NS(=O)(=O)c1ccc(NC(=S)Nc2ccc(OCc3ccccc3)cc2)cc1 | inconclusive [inhibitor, single point] | –
COc1ccc(N2CCCC2)c(NC(=O)c2ccc(Br)o2)c1 | inconclusive [inhibitor, single point] | –
CCn1ccnc1CN(C)Cc1cn(-c2ccccc2)nc1-c1ccc(OC)cc1F | inconclusive [inhibitor, single point] | –
C=CCn1c(=O)c2ccc(C(=O)NCc3ccccc3)cc2n(Cc2ccc(C)cc2)c1=O | inconclusive [inhibitor, single point] | –
CCOc1cc(NS(=O)(=O)c2ccc(Cl)cc2)c(OCC)cc1NC(=O)CC(C)C | active: 17.8 µM | –
Clc1ccc(-n2nnc(-c3ncc[nH]3)n2)cc1Cl | inactive | –
O=C(c1ccccc1)c1cccn1CC(=O)N1CCN(c2ccc(F)cc2)CC1 | inactive | –
CCN(CC)C(=O)C1=C(C)NC(=S)NC1c1cn(-c2ccccc2)nc1-c1ccc(Cl)cc1 (stereo not drawn) | inconclusive [inhibitor, single point] | –
CCCNC(=O)NC(=O)COc1ccc2oc3ccccc3c2c1 | inconclusive [inhibitor, single point] | –
O=C1C2CCCCN2C(=O)N1CCCCN1CCN(c2cccc(Cl)c2)CC1 (stereo not drawn) | inconclusive [inhibitor, single point] | –
Cc1ccc(C)c(NCC(=O)c2ccc(Cl)cc2)c1 | inconclusive [inhibitor, single point] | –
O=C(Nc1nc2c(F)cc(F)cc2s1)c1ccc2c(c1)OCCO2 | inactive | –
CC1(C)SC(=S)N(NC(=O)Nc2ccccc2)C1N(O)C(=O)Nc1ccccc1 (stereo not drawn) | inconclusive [inhibitor, single point] | –
N#Cc1ccccc1OCC(=O)Nc1c(C(=O)C2CC2)oc2ccccc12 | – | inconclusive: -30.4% [inhibitor]
COc1cc(OC)c(N(C)C(=O)c2cn(C)c(=O)c3cc(OC)c(OC)cc23)cc1Cl | inconclusive [inhibitor, partial curve] | –
COCCNC(=O)C(c1ccc(C)cc1)N(C(=O)C(=O)NC1CCCC1)c1ccc2c(c1)OCCO2 (stereo not drawn) | inactive | –

SMILES | Potency | activity change, negative = growth inhibition
COC(=O)c1sc(NC(=O)c2ccc3c(c2)OCO3)c(C#N)c1C | inactive | –
N/C(=N\c1nc2ccccc2o1)NC(=O)c1ccc(F)cc1 | active: 13 µM | –
CCCCN(C(=O)CCC(=O)Nc1cc(C)on1)C(C(=O)NC(C)(C)C)c1ccccc1Cl (stereo not drawn) | inconclusive [inhibitor, partial curve] | –
Cc1ccsc1S(=O)(=O)N1CCCC(CCC(=O)NCc2ccccc2F)C1 (stereo not drawn) | inconclusive [inhibitor, single point] | –
Nc1ccc(-c2nc3ccc(C(=O)O)cc3s2)cc1 | inactive | –
Cc1cccc2sc(N(CCCN(C)C)C(=O)c3ccc(S(=O)(=O)N4CCc5ccccc5C4)cc3)nc12 | active: 6.51 µM | –
CCOC(=O)c1c(NC(=O)CN2C(=O)NC3(CCCCC3C)C2=O)sc(C)c1CC (stereo not drawn) | inconclusive [inhibitor, single point] | –
Cc1c(Cl)cccc1NC(=O)C1CCCN(C(=O)c2cnn(-c3ccccc3)c2-n2cccc2)C1 (stereo not drawn) | inconclusive [inhibitor, single point] | –
CC1CCc2c(sc(NC(=O)c3ccc(Cn4cc([N+](=O)[O-])cn4)o3)c2C#N)C1 (stereo not drawn) | inactive | –
CN(C)c1ccc(-c2cccc(C3CC=CC4C3C(=O)N(Cc3ccccc3)C4c3ccc(C(F)(F)F)cc3)c2)cc1 (stereo not drawn) | active: 23.1 µM | –
COc1ccc(NC(=O)C(=O)NCCN2CCN(C(=O)c3ccc(C)cc3)CC2)cc1 | inactive | –
CN(c1ccccc1)S(=O)(=O)c1ccc(C(=O)NCc2cccnc2)cc1 | inactive | –
C[C@H](CO)N1C[C@H](C)[C@@H](CN(C)S(=O)(=O)c2cccs2)Oc2ccc(NS(=O)(=O)c3ccc(F)cc3)cc2C1=O | inactive | –
O=C(/C=C/[C@H]1O[C@@H](n2ccc(=O)[nH]c2=O)[C@H](O)[C@@H]1O)NCCN1CCCCC1 | inactive | –
Cc1cc(C)n(-c2nc3ccccc3nc2N2CCCCCC2)n1 | inconclusive [inhibitor, single point] | –
CC(=O)Nc1ccccc1NC(=O)C/C(C)=N/NC(=O)Cc1cccc2ccccc12 | – | inconclusive: -32.3% [inhibitor]
COC(=O)c1ccc(N2CCC(C)CC2)c(N)c1 | inconclusive [inhibitor, single point] | –
Cc1cccnc1CNC(=O)C1(C)CCCN1CC(C)C (stereo not drawn) | active: 14.6 µM | –
CCOc1cccc(CN2CCCC(C(=O)c3cc(Cl)ccc3OC)C2)c1O (stereo not drawn) | inconclusive [inhibitor, single point] | –
CCCCOc1ccc(N2CC(C(=O)NCCc3ccc(OC)c(OC)c3)CC2=O)cc1 (stereo not drawn) | inactive | –
O=C1N[C@@H](Cc2c[nH]c3ccccc23)COC(=O)[C@@H](Cc2ccc(F)cc2)CC/C=C/C[C@@H]1CC(=O)N(CCO)Cc1ccccc1 | active: 25.9 µM | –
Cc1c(C(=O)N2CCN(c3ccccn3)CC2)oc2c1C(=O)CC(C)(C)C2 | inconclusive [inhibitor, single point] | –
CCOc1cccc(OCCOc2ccc(C(=O)c3ccccc3)cc2)c1 | inconclusive [inhibitor, full curve] | –
